Experimental data reported in the RNAGym collection of RNA variant scans (doi:10.7554/elife.90254).
The source gives no read counts; variants with many changes may rest on few reads.

B1: LINE1-mini (parent)
chain: GGCAGAGCUCAACACAGCGUGGCAAAGUGGCUGUGGCUAGACUGCC

Variants of: B1
Experiment: self-cleavage, relative activity (ratio to wild type); higher = more cleavage; in vitro, sequencing; the parent is a self-cleaving ribozyme

Variant | self-cleavage
C15A A16G A39U C42G | 0
A24C A25U A39U | 0.46
A11U G29U C45A | 0.03
C23U G27A G44A C45G | 0.18
A6C U9A G29C G36A C37A A39U | 0.04
G2U C13U C31A G36A | 0.02
C23U A25U U28A | 0.44
U9G G17A G35C | 0.1
G19A G29U U38G | 0.02
C8G A16C G27A | 0.03
G5U G7C G21U A24C | 0.11
G17U U20A G30U C46G | 0.11
A6C C10U A12U C13U C15U U28G C45U | 0.04
C18A U28A C46G | 0.06
G19C U28G C45U | 0.36
C3A A25U A39U | 0.09
A4U C8G A24U G36U G44U | 0.02
C8G C18U G22U A26G G30C C42U | 0.03
G1A A6G A12U A14C | 0.02
G7C G29A C37A | 0.02
G30U G35U G40U | 0.03
C8A U9G G33A U34G A41G C46U | 0.02
G7U C10A G17A U43A | 0.04
C3U A12U C31A G40A | 0

Variant | self-cleavage
G5A C8A U20G C31G A39G | 0.04
C10A G35U C37A U38A G40A | 0.02
A6C C15U A25C A26U A39G | 0.08
A14U A24C G30A | 0.04
G2C C8G A16C | 0.12
C3A A4G C15A U28A | 0.13
C8U U9A U20A G33U G35A | 0.06
G5C U20C C23A A25G A41C | 0.06
C3A C18G U28C C45U | 0.13
C8G C10U A11U G29U A41G | 0.04
G1C G19U G21C | 0.07
G5U A12U G27U | 0.09
C23U G29U U43A C46U | 0.01
G1C G7A U34G | 0.04
C3A C13A C18A G40A C46G | 0.02
C3A G19C G29A U32C C42U | 0.09
C3G G7U G22A C23U U43G | 0.01
G2C G21C C42A U43C | 0.06
G1A C18U G44U | 0.77
G1C C3A G7U C15A A16C | 0.04
G1C G5U C18U C42A | 0.02
G22A G36A C42A | 0.09
A4G G29A G36U | 0.67
G2U A12G G17A G22C | 0.05

Variant | self-cleavage
A4U A24C G35U | 0.01
G7C U9C A14G G22U | 0.07
A16C A24G U32G | 0.2
C8U G19U U32A U34A | 0.04
G1C C15A C23U A39G | 0.01
U9A A25U G29A U32A C46G | 0.05
G22C G30U C31A C46U | 0.06
A4G A11C C23A | 0.01
G1U G7A U34A | 0.02
G2C C10A A12C A39U G40C | 0.01
A11C C13A A16C U34A C42U | 0
A4C A24G A26G | 0.08
C10U C15U U20C | 0.31
G2C C13A G22U | 0.01
C13U G22C U32G | 0.03
U9G G22A G30U G35U | 0.01
G7C C10G C13U U38C G40C | 0
A12U G19U C42U | 0.17
G1C A6G C10U A26U G30C U38A A41U G44A | 0
U9A G17A C18A G21A G22C G27U | 0.08
C3A A16U A26G | 0.25
G2U G5U U20G C31U | 0
C3A A14U U38C G44C | 0.2
G5C G22U C23G A25C G27U G30C | 0.06

Variant | self-cleavage
A4U A12C C13A A26G G30A G40C G44A | 0.03
C13G G21A U28G G29U U32A | 0.19
A4U A14G C18G G29U U38C | 0.09
C13G G21U C23U G40A | 0.37
A4U G5U A11U G40U U43G | 0.01
G7A U32C C46A | 0.15
G33U U34C C37G A39U | 0.01
C23U G27C C42A | 0.21
A11G U28G G30A | 0.05
G33U U34A U38A | 0.03
C3U G5C A26C G30C C31G G33U U43A | 0.02
G17U G22U C23G G35U G44U | 0.03
A6G C13A U28A U38G | 0.01
G1A G29U C37A | 0.08
A6U U9A G35U | 0.13
C23G C31U G44A | 0.02
A14U A16U G22A C42A | 0.04
G2U C15A G19C C23U | 0.05
C10A C13U C37G G40U | 0
U9C C13G A41C | 0.06
G1U G22U G40U U43A | 0
G1C A16C G19C | 0.06
G21U G27C G30A | 1.28
G2C U9G U28G G40U | 0.1

Variant | self-cleavage
C8A A26U G36U | 0.03
C3U C8A G27U | 0.49
C10G G27C C37A | 0.03
A16C C31U C42U | 0
A14U G17A G29A | 0.07
C3G C23G A25G U32G G35U | 0.08
G27U G33A A41G | 0.12
C3G G7U G30C | 0.11
U9G G19U A25G A26C | 0.14
G19A G35U A41U G44A | 0.04
C8G C23A G36C | 0.1
C10U G22C G36A C37G | 0.04
C3A G7U G29C G35C | 0.06
G1C G21U G27C U32A U38G A39G | 0.01
G1A A24U A26G U28C | 0.21
G2A C18G C31U C45U | 0.04
C3U U28A C37G | 0.04
C13G A14G C23U C37G C46U | 0.02
C13U A25C C31A | 0.04
C15G G21A C37G | 0.01
G33U C37A A41G | 0.08
A16U G30A C45A | 0.25
C8U U20C A24G G40U | 0.28
C8G G29U G40U | 0.05

Variant | self-cleavage
C10U A14C C23U A41G | 0.01
G5U G17C G22A C42G C46G | 0.05
G30U C31U A41G | 0.04
U9C A14G U38A | 0.04
A16U G22A U38C A41U | 0.1
G1U G29U U38C | 0.23
C13U A16G G35U C45U | 0.08
A14C C23U G44U | 0.1
A4U A6U C13A U28C | 0.03
G5C U20A G27U G30A U34C C42A U43C | 0.05
G5U G19A C31A G35A U43G | 0
A4C A16U C23G | 0.24
C8A C10U C18U U38C | 0.05
U20C A24G U28A | 0.64
G2U C15U G17A G35C G44C | 0.01
G1U G19A G27A U34G G40C C42A | 0.01
G1C C3U A6U A11U | 0.03
C10U C18A G19A G40A | 0.04
G5A G27C G30C | 0.1
G1A G27U C37A | 0.02
C15U G36C A41G | 0.06
G5A C13A A14G A25U | 0.22
G2U C3G G5A U9C G30A U32G G33U | 0.03
A12U G17C C45G | 0.02

Variant | self-cleavage
U20G G35U G40A | 0.01
A16U C23A A24U | 0.22
A26U U28G U32C | 0.15
A6G A14G G44C | 0.02
G2C A16C C23A C31U | 0.08
A4G G7C C18G | 0.16
G1U G17U U32A | 0.02
G1C A12U C15G C23U U43A | 0
G21U U32A U43A G44A | 0.04
G5A G7C C15U A16C U32C A41U U43C | 0.05
A24C A26C C42A | 0.11
C13G A24U A26U | 0.09
G17C G35C A39U | 0
G19U C23A G30U G33C C42A | 0.06
C13U U28C G29C A41U | 0.05
C8G U20A A39U | 0.06
A6C C13A G29A | 0.11
G1A G2C C3G A11G C18A U34G C37U A39G | 0.01
G1C C13A G44U | 0.03
G33C U38G G40U | 0.03
G29C G33U U38C | 0.12
G5C G17U C31U | 0.01
G27U G30A G35U C42A | 0.09
